This passage reports z-score results from PubChem BioAssay AID488969 (Vanderbilt High Throughput Screening Facility, 2010).

In all, about 110,000 compounds were measured (“z-score”: median about -0.1, highest 2% from about 2 on). The list shows a part of the results. Activity calls are given as the source filed them.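 How the source made its calls: active means z-score in the third read window above 3 or below -3; inactive means the rest.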

This assay deals with Metabotropic glutamate receptor 8 (Rattus norvegicus) (UniProt P70579). Briefly: rat mGluR8 modulators via GIRK flux, primary screen, cell-based, thallium flux, HTS (AID 488969). To be noted: HEK293 rat mGluR8, GIRK (G protein-gated inwardly rectifying potassium channel) thallium flux, FluoZin2; at 10 µM; stronger effect = higher value; submaximal glutamate (EC20) added with thallium.
Sequence of UniProt P70579 (P70579 whole entry, looked up): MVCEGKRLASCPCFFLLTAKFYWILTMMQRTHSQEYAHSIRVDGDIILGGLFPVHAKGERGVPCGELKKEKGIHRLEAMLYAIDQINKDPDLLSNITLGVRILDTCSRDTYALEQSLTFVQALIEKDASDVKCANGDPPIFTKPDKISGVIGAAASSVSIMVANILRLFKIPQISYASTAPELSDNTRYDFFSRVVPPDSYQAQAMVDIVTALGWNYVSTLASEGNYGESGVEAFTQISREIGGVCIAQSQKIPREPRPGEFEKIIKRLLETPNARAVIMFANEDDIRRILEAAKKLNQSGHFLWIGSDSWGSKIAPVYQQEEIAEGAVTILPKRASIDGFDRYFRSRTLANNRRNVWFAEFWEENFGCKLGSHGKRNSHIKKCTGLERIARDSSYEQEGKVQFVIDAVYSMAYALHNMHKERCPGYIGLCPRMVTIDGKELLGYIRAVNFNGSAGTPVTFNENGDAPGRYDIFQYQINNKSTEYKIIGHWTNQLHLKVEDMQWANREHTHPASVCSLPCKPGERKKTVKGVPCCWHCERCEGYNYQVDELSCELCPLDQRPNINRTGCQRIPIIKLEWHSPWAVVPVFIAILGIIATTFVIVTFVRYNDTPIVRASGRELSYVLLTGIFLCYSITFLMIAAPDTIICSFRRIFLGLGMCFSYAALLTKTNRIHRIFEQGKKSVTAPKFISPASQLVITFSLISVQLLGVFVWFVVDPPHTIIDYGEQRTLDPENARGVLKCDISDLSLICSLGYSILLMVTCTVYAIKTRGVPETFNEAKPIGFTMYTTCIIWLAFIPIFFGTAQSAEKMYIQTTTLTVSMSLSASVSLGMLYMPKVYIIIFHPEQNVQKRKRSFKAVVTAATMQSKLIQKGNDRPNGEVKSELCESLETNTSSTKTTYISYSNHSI
The compound `O=C(COC(=O)c1cccnc1Nc1ccccc1F)NC1CC1` had a z-score of -0.132.
To `O=C(/C=C/c1ccccc1)NCCN1CCOCC1` belongs -0.165; to `CN(C(=O)COC(=O)c1ccc(Cl)cc1N)C1CCS(=O)(=O)C1` (stereo unspecified), -0.285; to `COc1cc(Cn2c(N)c(C#N)c3nc4ccccc4nc32)cc(OC)c1`, -0.479.
`O=C(NCc1ccc(Cl)c(Cl)c1)c1cccnc1`: the z-score worked out at 0.88.
On to `O=S(=O)(NCc1cc(-c2ccc(Cl)cc2)no1)c1ccccc1`, for which the z-score was -0.194.
To `COc1cccc(/C=N/NC(=O)c2cc(C34CC5CC(CC(C5)C3)C4)[nH]n2)c1` belongs -0.105.
For the compound `COCCNC(=O)C(c1ccc(C)o1)N(Cc1cccs1)C(=O)c1snc(C(N)=O)c1N` (stereo unspecified), the z-score was -0.381.
`CCCNC(=O)C1CCN(S(=O)(=O)c2ccc(-c3nn[nH]n3)cc2)CC1` gave a z-score of -0.171.
To `Cc1ccc(-n2nc(C)c(NS(=O)(=O)c3ccccc3)c2C)cc1C` belongs -0.924; to `O=C(c1cccnc1)N1C2C=CC(C2)C1(C(F)(F)F)C(F)(F)F` (stereo unspecified), 0.0938.
The value for `COc1ccc(N2CCN(C(=O)COc3ccc4ccccc4c3)CC2)cc1` was -0.993; that for `CCOc1ccc(NC(=O)CN(c2ccc([N+](=O)[O-])cc2)S(=O)(=O)c2ccccc2)cc1` was 0.196; that for `CCCn1nnnc1-c1cc(Cl)cc(Cl)c1` was 0.41.
To `COc1ccc(OC)c(S(=O)(=O)n2ccnc2C)c1` belongs 0.384.
Compound `c1ccc(C[n+]2cccc3c4ccccc4ccc32)cc1` registered a z-score of -0.0839.
Consider `COC(=O)COc1cc(OCC(=O)OC)c2c(C)c(Cl)c(=O)oc2c1`, for which the z-score was -0.142.
In the case of `O=C(COC(=O)C12CC3CC(CC(C3)C1)C2)Nc1ccc(OC(F)F)cc1`, the z-score is -0.271.
The value for `CCOc1ccc2c(c1)sc(=NC(=O)C1CC1)n2C` was -0.83; that for `CC(C)(CNC(=S)NCCc1ccccc1)CNC(=S)NCCc1ccccc1` was 0.891; that for `CC(NC(=O)C1(c2cccs2)CCOCC1)c1ccccc1` (stereo unspecified) was 0.798.
The value for `O=C(O)C1CCN(Cc2cnn(-c3ccccc3)c2-n2cccc2)CC1` was 0.0466; that for `CC(C)N(C(=O)CSc1nc2ccccc2n1Cc1ccccc1)C(C)C` was -0.561; that for `CCOc1ccc(OCC(=O)N2CCOCC2)cc1` was -0.0495.
In the case of `O=C1C(Cl)=C(N2CCCCC2)C(=O)N1Cc1ccccc1`, the z-score is -0.114.
Compound `Cc1cc([N+](=O)[O-])cc2c1-c1ncccc1C2=Nc1ccccc1` showed a z-score of -0.213.
To `Cn1c(SCc2ccccc2)nnc1-c1cnccn1` belongs -0.0243; to `O=C(COc1ccccc1Br)NC1CCCC1`, -0.0181; to `CNCCCC12CCC(c3ccccc31)c1ccccc12`, 0.715.
`CN1CCN(NS(=O)(=O)c2cccs2)CC1` showed a z-score of 0.111.
As for `O=C(NC1CC2CCCC(C1)N2S(=O)(=O)c1ccccc1)C1CCCCC1` (stereo unspecified), the z-score was -0.223.
The value for `CC(=O)c1cccc(NC(=S)NC(=O)c2ccccc2Br)c1` was 1.09; that for `COc1ccc(C(=O)NC(=S)NNC(=O)CCc2ccccc2)cc1` was active: 3.38.
To `COc1cccc(C(=O)NC(C)c2ccc(Br)cc2)c1` (stereo unspecified) belongs -0.143; to `CCOC(=O)N1CCN(CC(=O)c2ccc3c(c2)CCN3C(C)=O)CC1`, -0.036; to `Cc1c(/C=N/NC(N)=O)c2ccccn2c1C(=O)c1ccc(F)cc1`, -0.327.
`COc1cccc(CC(NC(C)=O)C(=O)NC2CCN(c3nc(C)cc(C)c3C#N)CC2)c1` (stereo unspecified) had a z-score of 0.0161.
Compound `COc1cccc(NC(=O)c2ccn(C)n2)c1` gave a z-score of 0.125.
On to `O=c1[nH]n(-c2ccc(Cl)cc2)c(=O)c(Cl)c1Cl`, for which the z-score stood at 0.0334.
Take `CCOC(=O)c1cc(C)nn1-c1nc(Cl)cc(OC)n1`: the z-score was -0.255.
On to `CCOc1cc(CNc2ccc(CNc3ncn[nH]3)cc2)ccc1OCc1ccccc1`, for which the z-score is -0.171.
In turn, `Cc1[nH]oc(=O)c1N=Nc1ccccc1` registered a z-score of -0.0444.
Compound `CCn1c(=O)c(-[n+]2ccccc2)c(O)c2ccccc21` registered a z-score of -0.561.
As to `COCCNC(=O)C(c1ccco1)N(C(=O)Cn1nnc2ccccc21)c1ccccc1C` (stereo unspecified), the z-score is -1.02.
On to `Cc1ccc(-c2nnc(CSc3nc(C(C)C)nc4sc(C)c(C)c34)o2)cc1`, for which the z-score is 1.42.
`Cc1ccc(C(=O)NC(NC(=O)c2ccc(C)cc2)C(Cl)Cl)cc1`: the z-score is -0.154.
As for `Cc1ccccc1Cn1nc(C)c(NC(=O)c2noc3c2CC(C(C)(C)C)CC3)c1C` (stereo unspecified), the z-score amounted to 0.856.
To `Cc1ccc(C(=O)Nc2cc(C(F)(F)F)ccc2N2CCCCC2)cc1[N+](=O)[O-]` belongs -0.837.
To `c1ccc(Nc2nc(-c3ccccn3)cs2)cc1` belongs -0.545; to `Cn1c(=O)oc2cc(S(=O)(=O)N3CCC(C(=O)N4CC=C(c5ccccc5)CC4)CC3)ccc21`, -0.11; to `OCCN=c1cc(-c2ccccc2)oc2ccc(Cl)cc12`, 0.389.
To `CN(Cc1ccco1)C(=O)C(Cc1ccccc1)NS(=O)(=O)c1ccc2c(c1)CCC(=O)N2` (stereo unspecified) belongs 0.269.
For the compound `CCOc1ccc(NC(=O)CNC(=O)c2ccc(OC)c(OC)c2)cc1`, the z-score is -0.166.
The compound `COc1cccc(NC(=O)COC(=O)c2nc3nccc(C)n3n2)c1` showed a z-score of -0.0168.
In turn, `CCCCC1(C)NC(=O)N(CC(=O)Nc2ccc(S(=O)(=O)N3CCOCC3)cc2)C1=O` (stereo unspecified) had a z-score of -0.0271.
In the case of `O=C(Nc1ccc(CN2CCOCC2)cc1)c1cc2ccccn2n1`, the z-score is active: 4.59.
The value for `O=C(NCCCN1CCCC1=O)c1cccc(N2CCCC2=O)c1` was -0.337; that for `CCOC(=O)Cc1cc(-c2ccccc2)nc2ccc3ccccc3c12` was 0.252.
`S=C1NCCOCCOCCOCCOCCN1`: the z-score worked out at 0.074.
With `CCn1c(-c2cc(Cl)ccc2OC)n[nH]c1=S`, the z-score is -0.0735.
Compound `Cc1noc(C)c1C(=O)Nc1sc(C)c(C)c1C#N` had a z-score of 0.0125.
`Cc1c(C=O)c(=O)n(-c2ccccc2)n1-c1ccccc1` showed a z-score of -0.0631.
With `Cc1ccc2c(CC(=O)NC3CCCc4ccccc43)coc2c1` (stereo unspecified), the z-score was active: 4.11.
To `O=C(CSCc1ccccc1Cl)NNC(=S)Nc1ccccc1` belongs 0.00173.
To `Nc1nc(-c2ccccc2)nc(-c2ccccc2O)n1` belongs 1.01; to `CCOc1ccc2nc(SCC(=O)N3c4ccccc4Sc4ccccc43)sc2c1`, 0.268.
Regarding `O=C(CSc1nnc(SCc2ccc(Cl)cc2)s1)N/N=C/c1c[nH]c2ccccc12`, the z-score was 0.345.
The value for `O=[N+]([O-])c1cccc(-c2nnc(-c3ccc4c(c3)OCO4)o2)c1` was -0.286.
The value for `COCc1cc(Sc2ccc(Br)cc2)nc(-c2ccccc2)n1` was -0.015; that for `CC(C)c1ccc(S(=O)(=O)N2CCN(C(=S)NCc3ccco3)CC2)cc1` was -0.246; that for `Cc1ccc(C(=O)Cn2cnc3ccccc3c2=O)cc1C` was 0.299.
The value for `Cc1cc(NC(=O)C23CCC(C)(C(=O)O2)C3(C)C)no1` (stereo unspecified) was -0.23; that for `CCn1cc([N+](=O)[O-])c(C(=O)N2N=C3/C(=C/c4cccs4)CCCC3C2c2cccs2)n1` (stereo unspecified) was -0.066.
`Clc1ccc(Nc2ccc(NCc3ccccc3)nn2)cc1` displayed a z-score of -0.287.
To `O=C(Nc1cccc(F)c1)c1coc(=O)c(Br)c1` belongs -0.611; to `CC(C)(C)C1=C(C#N)C(c2ccncc2)C(C#N)=C(N)O1` (stereo unspecified), 0.014; to `O=C(CSc1nc(C2CCCCC2)nc2ccccc12)NCc1ccc2c(c1)OCO2`, -1.07.
The value for `Cc1ccc(N2C(N)=NC(N)=NC2(C)C)c(C)c1` was -0.263; that for `N#Cc1ccccc1Cn1c(=O)n(C2CCCC2)c(=O)c2ccccc21` was -1.01.
The value for `Cc1cccc(C)c1NC(=O)COC(=O)c1cc(-c2cccnc2)nc2ccccc12` was -0.617; that for `COc1ccc(CCNC(=O)CN(C2CCCCC2)S(C)(=O)=O)cc1` was 0.206.
In turn, `CCOC(=O)c1nnn(CC(=O)Nc2cc(F)ccc2F)c1C(=O)OCC` returned a z-score of -0.0535.
The compound `COc1ccc(C2C(C(=O)Nc3ccccc3)=C(C)N=C3SCC(=O)N32)cc1` (stereo unspecified) showed a z-score of 0.243.
`CCCCNC(=O)c1ccc(NS(=O)(=O)c2ccccc2)cc1` gave a z-score of 0.944.
To `Cc1ccc(S(=O)(=O)N(C)CC(=O)N2CCCC2)cc1` belongs 0.257; to `O=C(Nc1cccc(-c2cn3ccccc3n2)c1)C1CC1`, -0.233; to `CCOC(=O)c1cnc2c(C)c(Cl)ccc2c1N1CCOCC1`, 0.028.
To `CCCCN1CCc2[nH]c(=S)[nH]c(=O)c2C1` belongs -0.178.
The value for `CCOC(=O)Cn1ncc(-c2ccccc2)c1N` was 0.175; that for `O=C(Nc1ccc2c(c1)OCO2)C1CCN(S(=O)(=O)c2cccs2)CC1` was 1.49.
Compound `N#Cc1c(NCCO)nc(NCc2ccccc2)c2c1CCN(Cc1ccccc1)C2` registered a z-score of -0.208.
To `COc1ccc(Br)cc1CN(C)C(C)C(=O)Nc1cc([N+](=O)[O-])ccc1OC` (stereo unspecified) belongs -0.119; to `COc1ccc(-c2[nH]n(-c3ccc([N+](=O)[O-])cc3)c(=O)c2C=NCc2ccc(F)cc2)cc1`, 0.612; to `COc1ccccc1NC(=O)c1nnn(CC(=O)Nc2cccc(SC)c2)c1N`, 1.15.
The value for `COc1cc(NC(=O)CN2c3cccc4cccc(c34)S2(=O)=O)cc(OC)c1OC` was 1; that for `O=c1c([N+](=O)[O-])c(N2CCCCCC2)c2ccccc2n1-c1ccccc1` was -0.205.
The value for `C=CCn1c(-c2cccs2)nc2ccccc21` was active: 3.14; that for `COc1ccc(-c2cc3ccccc3n2CC(O)CNC(CO)(CO)CO)cc1` (stereo unspecified) was 0.348; that for `Cc1c(O)nc(SCC(=O)Nc2ccc3c4c(cccc24)CC3)n(-c2ccc(F)cc2)c1=O` was -0.749.
As for `Cc1cc(Cl)ccc1Oc1nc(-c2ccc(F)cc2)ccc1C#N`, the z-score is -0.289.
The value for `CSCc1cc(N(C)C)nc(SCc2ccc(Cl)cc2Cl)n1` was -0.0279; that for `CCOC(=O)C1=C(O)c2ccccc2C(=O)/C1=C\c1ccc(C)cc1` was 1.29; that for `CCCCS(=O)(=O)C1CCS(=O)(=O)C1` (stereo unspecified) was -0.0597.
In turn, `CCCn1c(=N)n(CCOCCOCCn2c(=N)n(CCC)c3ccccc32)c2ccccc21` displayed a z-score of 0.012.
`Cc1ccc(NC(=O)c2ccncc2)cc1S(=O)(=O)N(C)C` displayed a z-score of -0.143.
`CCOC(=O)N1CCN(C(=O)Nc2cccc(Cl)c2)CC1` showed a z-score of 0.474.
To `Cc1noc(C)c1COc1cccc(C(=O)OCC(=O)NC(=O)c2ccc(OC(F)F)cc2)c1` belongs -0.262; to `COc1ccc(C(=O)NC(=S)Nc2cc(C)ccn2)cc1[N+](=O)[O-]`, 0.115.
Turning to `CSCCC(NC(=O)c1ccc(Cl)cc1)C(=O)OCC(=O)c1ccc[nH]1` (stereo unspecified), the z-score amounted to 0.12.
The value for `O=C(NC1CCCCC1)C1CCN(S(=O)(=O)c2cccs2)CC1` was 0.0582; that for `CN(C)S(=O)(=O)c1ccc(C(=O)Nc2cccnc2)cc1` was 0.829.
